# Results: PubChem BioAssay AID485294 (National Center for Advancing Translational Sciences (NCATS), 2010)
# About 150 (0.041%) of roughly 370,000 compounds were called active. The shares of active, inactive and inconclusive entries below differ from those in the screen. Calls follow the shape of the dose curve; as a rule, active = well fitted inhibition curve with a large enough effect; inconclusive = small, poorly fitted or top-dose-only effect; inactive = flat fitted curve, though single readings scatter. No potency is given beside an inconclusive call; the fits are too rough.
# Target: Beta-lactamase (Escherichia coli (strain K12)) (UniProt P00811)
# Test: qHTS Inhibitors of AmpC Beta-Lactamase (assay with detergent); also: nearly all actives have a fitted effect of over 25% in size;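 as to activity change, negative = inhibition: 0% = no-compound wells and -100% = no-enzyme wells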
# Details: AmpC hydrolysis of nitrocefin, absorbance 480 nm, 0.01% Triton; activity change, negative = inhibition: at 114 µM (top of the series)
# Outline: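 20 mM phosphate pH 7.0 + 0.01% (detergent screen) or 0.0001% Triton X-100; 5.3 nM AmpC reagent; cpd preinc 15 min RT; nitrocefin (800 uM stock) to start; A480 q20 s × 4 min; Activity was normalised to no-enzyme and no-compound control wells.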
# Potency is read from the fitted curve at half-maximal effect; tags tell the direction and shape of the fitted curve.
# Chain of UniProt P00811 (P00811 whole entry, looked up): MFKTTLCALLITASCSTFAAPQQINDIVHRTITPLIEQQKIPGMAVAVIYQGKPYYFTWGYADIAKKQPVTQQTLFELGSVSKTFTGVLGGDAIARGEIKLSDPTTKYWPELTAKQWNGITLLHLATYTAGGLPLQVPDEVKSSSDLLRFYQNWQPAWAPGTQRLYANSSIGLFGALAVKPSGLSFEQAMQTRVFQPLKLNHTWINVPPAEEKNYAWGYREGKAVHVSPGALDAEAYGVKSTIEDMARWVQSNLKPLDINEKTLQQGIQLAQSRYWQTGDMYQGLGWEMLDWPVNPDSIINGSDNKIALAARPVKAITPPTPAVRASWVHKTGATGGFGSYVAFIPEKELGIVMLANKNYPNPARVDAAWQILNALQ
Structure (SMILES),Potency,"activity change, negative = inhibition"
CCOC(=O)CC(=O)CSC1=C(C#N)C(c2ccccc2OC)CC(=O)N1 (stereo not given),"inconclusive [inhibitor, single point]",–
Cc1nn(C(C)C(=O)NCCC2=CCCCC2)c(=O)c2nn(-c3ccccc3)c(C)c12 (stereo not given),"inconclusive [inhibitor, single point]",–
O=C(NC(=S)NCc1ccccc1)c1cccs1,–,inactive: -5.41%
Cc1ccccc1-c1nc2sc3c(c2c(=O)n1N)CCCC3,"inconclusive [inhibitor, partial curve]",–
CN(CCCNC(=O)c1ccc(/C=N/O)nc1)CCCN(C)Cc1ccccc1,"inconclusive [inhibitor, full curve, poor fit]",–
COc1ccc(-n2nc(C(=O)NCC(=O)N3CCC4(CC3)OCCO4)c3ccccc3c2=O)cc1OC,–,inactive: 0.41%
COc1ccc(C(=O)NCc2ccc3c(c2)OCO3)cc1,–,inactive: -7.31%
Fc1ccc(CNC(=S)NC2CCCCC2)cc1,"inconclusive [inhibitor, full curve, poor fit]",–
O=S(=O)(c1ccc2ccccc2c1)N1CCOCC1,–,inactive: -8.99%
COC(=O)Cn1c(=O)n(CCc2ccccc2)c(=O)c2c3c(sc21)CCCC3,"inconclusive [inhibitor, full curve, poor fit]",–
CCCCOC(=O)Oc1ccc2c(=O)c(Oc3cc(C)cc(C)c3)coc2c1,"inconclusive [inhibitor, full curve]",–
CSc1nc(N2CCOCC2)c2c(c1C#N)CCCCC2,"inconclusive [inhibitor, full curve]",–
N#Cc1nc(-c2cccs2)oc1NCc1ccc2c(c1)OCO2,"inconclusive [inhibitor, partial curve, poor fit]",–
CCOc1cccc(-c2nnc3n2N=C(c2cc(OC)ccc2OC)CS3)c1,–,inactive: 0.872%
CCN(C1CCCCC1)S(=O)(=O)CCNC(=O)c1ccccc1,"inconclusive [inhibitor, partial curve, poor fit]",–
CC1=CC2=NC(=O)/C(=C\c3cccn3CCOc3cc(C)cc(C)c3)C(=N)N2O1,"inconclusive [inhibitor, full curve, poor fit]",–
CC1(C)C(=O)Nc2ccccc2N1C(=O)COC(=O)c1ccc(NC(N)=O)cc1,–,inactive: -11.2%
N#Cc1nc(-c2ccccc2Cl)oc1NCC1CCCO1 (stereo not given),–,inactive: -1.9%

Structure (SMILES),Potency,"activity change, negative = inhibition"
CCCCC(=O)NC(NC(=O)CCCC)c1ccc(OCCC)c(OC)c1,"inconclusive [inhibitor, full curve, poor fit]",–
CCC1=C(OC(=O)N(CC)CC)N2C(=O)OC(=NCc3ccccc3)[C@]2(C)[C@H]2C1=CC[C@H]1C(=O)N(c3ccccc3)C(=O)[C@H]12,–,inactive: 1.95%
COc1ccc(CCN(C)C/C=C/c2ccccc2[N+](=O)[O-])cc1OC,"inconclusive [inhibitor, full curve, poor fit]",–
Cc1csc(NC(=O)c2nn(C)c(C)c2[N+](=O)[O-])n1,–,inactive: 2.15%
Cc1ccc(S(=O)(=O)N2CCN(C(=O)COC(=O)COc3cccc4c3OC(C)(C)C4)CC2)cc1,"inconclusive [inhibitor, single point]",–
COCCn1c(N2CCN(c3ccccc3)CC2)nc2c1c(=O)n(C)c(=O)n2C,–,inactive: 3.29%
COc1ccc2c3c(c(=O)oc2c1)C1O[C@](c2ccsc2)(Cc2cc(C#N)ccc21)O3,"inconclusive [inhibitor, partial curve, poor fit]",–
O=c1oc2cc(O)ccc2s1,"inconclusive [inhibitor, partial curve, poor fit]",–
Cc1ccc(NC(=O)C(SCC(=O)O)c2ccccc2)cc1C (stereo not given),"inconclusive [inhibitor, full curve, poor fit]",–
COc1ccc(-c2oc3ccccc3c2C(=O)OCc2ccc([N+](=O)[O-])cc2)cc1,"inconclusive [inhibitor, partial curve]",–
C=CCOc1ccc(CNCCO)cc1OCC,"inconclusive [inhibitor, partial curve, poor fit]",–
CCN1CCN(C(=O)C2CCN(S(=O)(=O)c3cccc4cccnc34)CC2)CC1,"inconclusive [inhibitor, full curve, poor fit]",–
Cn1c(=O)c2c(-c3ccccc3)n(C3CCCCC3)cc2n(C)c1=O,"inconclusive [inhibitor, partial curve]",–
COc1ccc(/C=N/NC(=O)c2cccnc2)cc1O,"inconclusive [inhibitor, full curve, poor fit]",–
CN(C(=O)CC1C(=O)NCCN1Cc1ccc(F)cc1)C1CCOCC1 (stereo not given),–,inactive: 2.25%
Cn1nccc1C(=O)N/N=C/c1c(O)ccc2ccccc12,–,inactive: 0.984%
Cc1ccccc1NC(=O)COC(=O)c1ccc2c(c1)OCCO2,"inconclusive [inhibitor, full curve]",–
